Measurements: PMC4336329 (PLoS ONE, 2015)
About 14,000 (4.5%) of roughly 310,000 compounds showed an effect of 50% or more. The effect is printed as a negative number. The list shows a part of the results.

Each compound was assayed against human ether-à-go-go-related gene (hERG) potassium channel (human, UniProt Q12809) (assay: primary screen, population patch clamp on CHO cells stably expressing hERG).
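Also: peak tail current of the secondary pulse compared with the same well before compound.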

Chain of human ether-à-go-go-related gene (hERG) potassium channel (Q12809 whole entry, looked up): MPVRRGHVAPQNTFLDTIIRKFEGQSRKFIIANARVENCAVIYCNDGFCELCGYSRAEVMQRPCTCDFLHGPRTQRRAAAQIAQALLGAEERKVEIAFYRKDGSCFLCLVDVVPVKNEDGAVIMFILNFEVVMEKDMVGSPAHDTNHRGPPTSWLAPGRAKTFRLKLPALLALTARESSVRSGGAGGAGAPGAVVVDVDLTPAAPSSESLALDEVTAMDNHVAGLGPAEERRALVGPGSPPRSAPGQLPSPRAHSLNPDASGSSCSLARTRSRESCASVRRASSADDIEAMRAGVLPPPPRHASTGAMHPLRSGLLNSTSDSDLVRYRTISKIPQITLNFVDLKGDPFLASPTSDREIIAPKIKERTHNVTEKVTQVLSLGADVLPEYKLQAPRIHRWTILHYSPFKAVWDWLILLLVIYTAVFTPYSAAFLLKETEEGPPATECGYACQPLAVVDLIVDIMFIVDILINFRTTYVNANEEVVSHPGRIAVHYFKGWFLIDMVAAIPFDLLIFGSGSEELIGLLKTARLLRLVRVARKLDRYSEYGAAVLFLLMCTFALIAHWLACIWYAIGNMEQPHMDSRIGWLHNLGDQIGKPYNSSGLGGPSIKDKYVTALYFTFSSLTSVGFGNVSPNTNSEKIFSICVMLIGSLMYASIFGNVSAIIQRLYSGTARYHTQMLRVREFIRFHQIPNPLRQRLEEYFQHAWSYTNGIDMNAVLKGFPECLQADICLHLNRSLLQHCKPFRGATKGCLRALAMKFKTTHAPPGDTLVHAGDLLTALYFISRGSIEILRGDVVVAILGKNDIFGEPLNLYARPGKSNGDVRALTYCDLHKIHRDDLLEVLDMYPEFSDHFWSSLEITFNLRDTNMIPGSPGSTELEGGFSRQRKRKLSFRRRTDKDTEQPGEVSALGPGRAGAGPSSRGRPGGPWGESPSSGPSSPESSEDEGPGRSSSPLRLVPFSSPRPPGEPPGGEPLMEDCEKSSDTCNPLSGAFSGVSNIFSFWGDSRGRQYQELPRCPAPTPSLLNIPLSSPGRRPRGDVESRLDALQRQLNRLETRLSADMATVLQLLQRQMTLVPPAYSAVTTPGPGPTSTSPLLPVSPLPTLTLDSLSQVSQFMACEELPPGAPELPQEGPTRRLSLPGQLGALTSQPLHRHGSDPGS

Structure (SMILES) | hERG current change (%, negative = inhibition) at 10uM [%]
CCOC(=O)Nc1oc2ccccc2c(=O)c1C | -14
CC1CCCC(NC(=O)COC(=O)CCSc2ccccc2)C1C (stereo not drawn) | 20.6
O=C(c1ccccc1)N1CCCC(C(=O)N2CCN(c3ccccc3)CC2)C1 (stereo not drawn) | 2.88
COC(C(=O)Nc1ccnn1C1CCN(C(=O)c2ccc(C)cc2)CC1)c1ccccc1 (stereo not drawn) | -27.5
CCOC(=O)CC(NC(=O)c1ccco1)c1ccc(C)cc1 (stereo not drawn) | 5.28
CCOCCCNC(=O)C1CCCCN1S(=O)(=O)c1ccc(F)cc1 (stereo not drawn) | 0.394
CC1(C)CC2CC(C)(CN2C(=O)COC(=O)c2ccc(Cl)cc2N)C1 (stereo not drawn) | -14.4
CC(OC(=O)COc1cccc2c1OC(C)(C)C2)C(=O)Nc1ccc(S(N)(=O)=O)cc1 (stereo not drawn) | 2.78
Cc1[nH]n(-c2ccc([N+](=O)[O-])cc2)c(=O)c1C=NCCN1CCN(C(=O)c2ccc(Br)cc2)CC1 | -76.6
COC(=O)c1ccccc1NC(=O)COC(=O)c1ccc(C)c(NC(=O)c2ccco2)c1 | -25.7
COc1cccc2c(=O)n(CC(=O)N3CCN(c4ccccc4)CC3)ccc12 | -6.68
O=C(NCCS(=O)(=O)N1CCN(c2cccc(Cl)c2)CC1)c1cc(=O)c2ccccc2o1 | 5.36
COc1ccc2c(c1)C=C(C(=O)NCc1ccc(Cl)cc1)CO2 | -67
CCc1nn2c(=O)cc(CSCC(=O)Nc3ccccc3Cl)nc2s1 | 4.09
Cc1c(O)ccc(C(=O)CN2CCN(Cc3ccccc3)CC2)c1O | -27
CCOC(=O)Nc1ccc(S(=O)(=O)Nc2nccc(C)n2)cc1 | 6.04
CCOC(=O)N1CCC(=NNC(=O)COc2ccc(C#N)cc2)CC1 | -3.27
COc1ccc2nc(C(C)O)[nH]c2c1 (stereo not drawn) | -4.88
CCCCn1cnc2c1c(=O)n(CC(=O)c1cc(C)n(C)c1C)c(=O)n2CC(C)C | -17.7
O=C(Cn1nnc(-c2ccccc2)n1)Nc1ccc2c(c1)OCO2 | 17.4
CCCC(=O)N1CCC(Cc2ccccc2)CC1 | 9.83
COc1ccc(Br)cc1CNC(=O)Cn1nc(C)n2cccc2c1=O | -10.1

Structure (SMILES) | hERG current change (%, negative = inhibition) at 10uM [%]
Cc1nc(C)c(C(=O)OC(C)C(=O)Nc2ccc(F)cc2)s1 (stereo not drawn) | -7.03
CCCn1c(-c2ccc[nH]c2=O)nc2cc(C)c(C)cc21 | 29.3
COCCNC(=O)COc1coc(CN2CCN(Cc3ccccc3)CC2)cc1=O | 12.3
Cc1cccc2nc3ccccc3nc12 | 3.53
O=c1cc(C(F)(F)F)c2cc3c4c(c2o1)CCCN4CCC3 | -1.4
O=C(Nc1ccccc1)C(=O)c1c[nH]c2ccccc12 | 13.7
COc1cccc(NC(=O)COC(=O)/C=C/c2c(C)nn(-c3ccccc3)c2C)c1 | -19
CCn1c(SCC(=O)Nc2ccc(OC)c(OC)c2)nc2c(c1=O)SCC2 | -9.81
COc1ccc(N2C(=O)C3C4C=CC(C4)C3C2=O)c([N+](=O)[O-])c1 (stereo not drawn) | -2.92
Cc1ccc(Nc2nnc(SCc3ccccc3)s2)cc1 | 11.9
O=C(CN1CCN(c2ncc(C(F)(F)F)cc2Cl)CC1)N1CCN(c2ncc(C(F)(F)F)cc2Cl)CC1 | 11.7
COc1ccc(N(CC(=O)NC2CCCCC2)C(=O)CNC(=O)c2ccco2)cc1OC | -11.5
Cc1nnc(Nc2ccc(Cl)cc2)n(N)c1=O | 8.16
O=C(O)c1ccccc1C(=O)Nc1ccc(S(=O)(=O)NC2CCCCC2)cc1 | 10.3
O=C(Nc1ccccc1)OC1CN=C(N[N+](=O)[O-])NC1 (stereo not drawn) | 9.31
Oc1ccccc1C=Nc1ccccc1-c1nc2ccccc2[nH]1 | 5.22
COc1cccc(C(=O)Nc2cccc(-c3nnc(-c4ccccc4)o3)c2)c1 | -4.18
Cc1nc2ccc(NC(=O)Cc3c(F)cccc3Cl)cc2s1 | -3.93
CC1CCN(C(=O)c2nc[nH]c2C(=O)O[C@H](C)c2ccccc2)CC1 | 8.79
CC(C)CC(c1nnnn1C1CCCC1)N1CCN(c2ccccc2F)CC1.Cl (stereo not drawn) | 4.76
O=C(Cn1ncc2c3ccccc3n(Cc3ccccc3)c2c1=O)NCCCN1CCCC1=O | -29.8
COC(=O)c1c(CCl)noc1C(=O)NC(C)C | 10

Structure (SMILES) | hERG current change (%, negative = inhibition) at 10uM [%]
CC(C)CC(=O)N1CCN(Cc2cccc(F)c2)CC1 | -2.39
O=C(NC1(C(F)(F)F)C(=O)Nc2c1c(=O)[nH]c(=O)n2Cc1ccccc1)c1ccc(Cl)cc1 (stereo not drawn) | 5.24
CCCCCCCC(=O)NC(Oc1ccccc1[N+](=O)[O-])C(Cl)(Cl)Cl (stereo not drawn) | -17.3
CC(C)(C)OC(=O)N1CCC(Cc2cc(-c3ccccc3)no2)(C(=O)O)CC1 | 12.1
CCc1cc2cc3c(cc2nc1SCC(=O)Nc1nccs1)OCO3 | -3.49
O=C1OC(Cc2ccncc2)C(O)=C1C1=NCCCN1 (stereo not drawn) | 20.5
Cc1cccc(OCCC(=O)Nc2ccc(F)c(Cl)c2)c1 | 0.149
O=C(CCN1C(=O)C2C3C=CC(C3)C2C1=O)N1CCN(c2ccc([N+](=O)[O-])cc2)CC1 (stereo not drawn) | -81.2
COc1ccc(-c2csc(-n3ncc(C(=O)O)c3C(F)(F)F)n2)cc1 | 20
CCOC(=O)/C(=N\Nc1cc(Cl)ccc1Cl)N1CC(C)OC(C)C1 (stereo not drawn) | 14.2
Cc1ccc(C(=O)N2CCCC(Nc3cccc(F)c3)C2)cc1N1CCNC1=O (stereo not drawn) | 1.96
COc1ccc(CCC(=O)NC2CCCc3ccccc32)cc1OC (stereo not drawn) | 18.7
COc1ccc(OCC(=O)NCCCNC(=O)COc2ccc(OC)cc2)cc1 | -12.5
O=C(c1noc2c1CCc1ccccc1-2)N1CCCc2ccccc21 | -4.58
CCOc1ccc(NS(=O)(=O)c2ccc(C(=O)NCc3ccncc3)cc2)cc1 | 8.25
COCCn1cnc2c1c(=O)n(CC(=O)Nc1cc(C)on1)c(=O)n2Cc1ccccc1 | -22.2
CCOC(=O)CCCCC(=O)c1[nH]c(=O)[nH]c1CSc1nnc2c3ccccc3n(C(C)C)c2n1 | -1.17
Cc1c(Cl)cccc1-c1ccc(C(=O)N2CCN(c3ccc([N+](=O)[O-])cc3)CC2)o1 | -14
NS(=O)(=O)c1ccc(CCNC(=O)CNC(=O)Cc2ccccc2)cc1 | 23.6
c1cc(CNC2=NCCCCC2)ccn1 | 3.06
CC(C)[C@H](NS(=O)(=O)c1ccc2c(c1)OCCO2)C(=O)OCC(=O)Nc1cc(Cl)ccc1Cl | 1.67
COc1cc(NC(=O)CCCOc2ccc(Cl)cc2Cl)c(C(=O)O)cc1OC | -10.6

Structure (SMILES) | hERG current change (%, negative = inhibition) at 10uM [%]
N/C(=N\OC(=O)CCCOc1ccccc1)c1ccccc1 | 7.28
O=C(Nc1ccccc1)N1CCN(C2c3ccccc3-c3ccccc32)CC1 | 13.7
CCC(C)NC(=O)CN(c1ccc(Cl)c(Cl)c1)S(C)(=O)=O (stereo not drawn) | 3.62
CCCc1nc(SCc2ccccn2)c2c(=O)n(C)c(=O)n(C)c2n1 | -59.1
CCCCN(C(=O)c1cccc(C)c1)c1c(N)n(CCC)c(=O)[nH]c1=O | 17.3
Cc1ccc2nc(NC(=O)CSc3nc(=O)n(CCCN(C)C)c4c3CCC4)sc2c1 | -50.2
CC(=O)N1N=C(c2cccc(Cl)c2)OC1c1ccc(C(C)C)cc1 (stereo not drawn) | 6.7
Cc1cccc(C(=O)Nc2ccccc2SCC(=O)Nc2ccc(C)c(Cl)c2)c1 | 28.5
CC(C)c1ccc(NC2CCCN(C(=O)CN3CCCC3=O)C2)cc1 (stereo not drawn) | 12.8
CN1C2C(Br)CCCCN2c2ccc(F)cc2S1(=O)=O (stereo not drawn) | -7.86
O=C(Nc1c2c(nn1-c1ccc(Cl)cc1)CS(=O)(=O)C2)c1ccccc1 | 1.37
COc1ccccc1/C=N/NC(=O)c1nnn(-c2nonc2N)c1-c1cccs1 | 13
COc1ccccc1N1CN(CCc2ccccc2)CNC1=S | 6.07
Cc1ccc(-c2[nH][nH]c(=O)c(=O)c2N=Nc2ccccc2)cc1 | 12.9
O=C(c1cc2c(s1)-c1ccccc1S(=O)(=O)C2)N1CCN(Cc2ccccc2)CC1 | -34.3
Cc1ccc(NC(=O)CCC(=O)NNC(=O)C(C)(C)C)c(C)c1 | -12.3
Cc1c(N=CN2CCOCC2)c(=O)n(C)c(=O)n1C | 2.15
NC(=O)N/N=C/c1cn(CC(=O)Nc2ccc(F)cc2)c2ccccc12 | -0.767
COc1ccccc1OCCNC(=O)CN1C(=O)NC2(CCCCC2)C1=O | -22
CCc1ccc(NC(=O)CSc2nnc(CNC(=O)c3c(F)cccc3Cl)o2)cc1 | 7.23
CCNS(=O)(=O)c1ccc(CCC(=O)N2CCN(c3ccccc3F)CC2)cc1 | -0.133
